In PubChem BioAssay AID894 (National Center for Advancing Translational Sciences (NCATS), 2007):
Screen size: about 150,000 compounds; about 6,500 (4.3%) were called active. This list was built around the results that the source calls inconclusive (neither active nor inactive); the mix of calls is not that of the screen. Calls come from the whole dose curve; as a rule, active = well fitted inhibition curve with a large enough effect (not every such curve was filed as active); inconclusive = small, poorly fitted or top-dose-only effect, or another doubt; inactive = no such curve, though single readings can be large or run the other way. Potencies beside an inconclusive call are fits to weak or partial responses and may not hold up.

Each molecule was assayed against 15-hydroxyprostaglandin dehydrogenase [NAD(+)] (Homo sapiens) (UniProt P15428) (assay: qHTS Assay for Inhibitors of HPGD (15-Hydroxyprostaglandin Dehydrogenase)). Settings: purified HPGD, NADH fluorescence kinetic, PGE2 substrate; activity change, negative = inhibition: hits give low values.
How it was run: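 20 nM HPGD preincubated 15 min at room temperature with compound in 50 mM Tris-HCl pH 8, 0.01% Tween 20. Started with 1 mM NAD+ and 30 uM prostaglandin E2; NADH fluorescence (360/450 nm) read 5 times over 30-s intervals, last minus first.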
% is set by controls: 0 for no effect and ±100 for the full control effect; potency is the fitted concentration of half-maximal effect; tags give direction and shape of the fitted curve.

Sequence of UniProt P15428 (P15428 whole entry, looked up): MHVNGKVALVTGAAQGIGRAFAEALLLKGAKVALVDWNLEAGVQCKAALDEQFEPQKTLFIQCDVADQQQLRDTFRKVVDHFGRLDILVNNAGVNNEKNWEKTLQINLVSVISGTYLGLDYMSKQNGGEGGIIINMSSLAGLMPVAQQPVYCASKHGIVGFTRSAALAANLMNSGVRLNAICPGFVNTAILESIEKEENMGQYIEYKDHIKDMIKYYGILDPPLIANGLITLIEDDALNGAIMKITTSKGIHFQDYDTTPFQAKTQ

Activity change, negative = inhibition, inactive:
N#Cc1c(-c2ccccc2)nc2n(-c3ccccc3)nc(C(=O)Nc3ccccc3)n2c1=O -16.2%
O=C(c1csnn1)N1CCC2(CCCN(c3ccc(-c4ccccc4)cc3)C2)CC1 -12.7%
CCN1/C(=C/c2ccc3cccc(C)c3[n+]2CC)Sc2ccccc21 -1.43%
Cc1cc(C)n(-c2cc(-c3ccccc3)nc(C)n2)n1 3.97%
Cc1ccc(CSCC(=O)N2CCN(c3ccc(F)cc3)CC2)cc1 -7.92%
CCCCC(CC)CNCC(CC)CCCC (configuration not stated) -9.63%
Cc1ccc(-c2c(C(=O)NCc3ccccc3)oc(=O)c3ccccc23)cc1 -1.81%
COc1ccccc1CNC(=O)C1(c2ccc(Cl)cc2)CC1 -3.78%
O=C(NN=C1c2ccccc2-c2ccccc21)c1ccccc1 -6.93%
Cc1ccc(Cn2c(-n3nc(C)cc3C)nc3c2c(=O)[nH]c(=O)n3C)cc1 -8.18%
Cc1ccc(OCC(=O)N/N=C/c2cc([N+](=O)[O-])ccc2N2CCCCC2)cc1 -9.46%
CCOC(=O)c1c(NC(=O)C2CCCO2)sc2c1CCC2 (configuration not stated) -19.1%
COc1ccc(N2C(=O)CC(Nc3ccc(N4CCOCC4)cc3)C2=O)c(OC)c1 (configuration not stated) -0.92%
CCN(CC)c1ccc(C=C2C(=O)OC(C)(C(C)(C)C)OC2=O)cc1 (configuration not stated) -11.8%
Cc1ccc(NS(=O)(=O)c2ccc(OCC(=O)NCc3ccco3)cc2)cc1 1.42%
COc1ccc(-n2c(=O)cc(N3CCN(c4ccccc4F)CC3)[nH]c2=O)cc1 2.31%
CC1=C(C(=O)Nc2cccnc2)C(c2ccncc2)n2nnnc2N1 (configuration not stated) -11.8%
CCn1cc(/C=N\NC(=O)Cc2ccc(Cl)cc2)cn1 -4%
Cc1csc(SCCn2c(Br)nc3c2c(=O)[nH]c(=O)n3C)n1 0.491%
COc1ccc(-n2c(SCC(=O)NCc3ccco3)nc3c([nH]c4ccccc43)c2=O)cc1 -15.6%
O=C(Nc1ncccn1)c1ccc(C(F)(F)F)cc1 -12.7%

Potency, active:
CCOC(=O)CCCCC(=O)c1[nH]c(=O)[nH]c1CSc1nc(-c2ccccc2)c(C#N)c(=O)[nH]1 20 µM
S=c1[nH]nc(-c2ccccc2)n1/N=C/c1ccc(-c2ccccc2Cl)o1 3.16 µM
O=C(NCc1ccco1)c1cccs1 25.1 µM
Brc1cccc(-c2nnc3n2CCCCC3)c1 6.31 µM
O=C(NCc1ccccc1)c1ccc(Cl)cc1[N+](=O)[O-] 12.6 µM
CC(C)c1cc(C(=O)Nc2cc(Cl)ccc2O)no1 5.62 µM
CN(NC(=S)Nc1ccc(OC(F)F)cc1)C(=S)Nc1ccc(OC(F)F)cc1 17.8 µM
O=C(CCCCn1c(=S)[nH]c2ccsc2c1=O)NCc1ccco1 14.1 µM
CC(C)Oc1ccc(C(CC(=O)NCc2ccco2)c2ccccc2)cc1 (configuration not stated) 11.2 µM
O=C(NCc1ccco1)c1ccc2ccccc2c1 31.6 µM
CCOC(=O)CSc1nnc(CSc2nc3ccccc3c(=O)[nH]2)n1-c1ccccc1 4.47 µM
CC1CCCCN1C(=O)CSc1nnc(-c2cccnc2)n1C1CCCCC1 (configuration not stated) 25.1 µM
CCCCC(=O)Nc1cccc(-c2nn3c(C)nnc3s2)c1 15.8 µM
CC(/C=N/n1c(-c2ccco2)n[nH]c1=S)=C\c1ccco1 14.1 µM

Potency, inconclusive:
COc1cccc(CNc2ccc3c(c2)ncn3C(C)C)c1OC 25.1 µM [inhibitor, partial curve]
COc1cc2c(cc1NC(=O)Cc1ccc(C)cc1)oc1ccccc12 35.5 µM [inhibitor, partial curve]
COc1cccc(CC(NC(C)=O)C(=O)NC2CCN(c3c(Cc4ccccc4)c(C)nc4ncnn34)CC2)c1 (configuration not stated) 25.1 µM [inhibitor, partial curve]
OCCCc1nc2n(n1)C(c1cccs1)C=C(c1ccc(Br)cc1)N2 (configuration not stated) 31.6 µM [inhibitor, single point]
CCOC(=O)c1cc(-c2ccccc2)sc1NC(=O)c1ccc(OC)c(OC)c1 25.1 µM [inhibitor, partial curve]
O=c1oc(-c2cccs2)nc2ccccc12 31.6 µM [inhibitor, single point]
CC(C)N(C(=O)Nc1ccc2nccnc2c1)C(C)C 14.1 µM [inhibitor, partial curve]
COc1ccccc1C(=O)NCC1CCN(c2ccc(S(=O)(=O)N3CCOCC3)cc2)CC1 39.8 µM [inhibitor, single point]
COc1ccc(/C=C/C(=O)Nc2nc(C)cc(C)n2)cc1OC 14.1 µM [inhibitor, partial curve]
COc1cc(/C=C2\SC(c3ccc(C)cc3)=NC2=O)ccc1O 39.8 µM [inhibitor, single point]
CCn1c(SCC(=O)Nc2ccc3c(c2)oc2ccccc23)nnc1-c1ccc(N)cc1 35.5 µM [inhibitor, single point]
O=C(Nc1ccc(CN2CCOCC2)cc1)c1ccc(-c2cc(Cl)ccc2Cl)o1 31.6 µM [inhibitor, single point]
COc1ccc(-c2cc(C(F)(F)F)n3nc(C(=O)NCc4ccco4)c(Cl)c3n2)cc1 20 µM [inhibitor, partial curve]
Oc1c(Cl)cc(Cl)cc1CNc1ccc(Br)cn1 22.4 µM [inhibitor, partial curve]
CN(C)CCCN(C(=O)c1ccc2c(c1)CCCC2)c1nc2c(F)cccc2s1 35.5 µM [inhibitor, single point]
Cc1cccn2c(=O)c3cc(C(=O)N4COCC4(C)C)n(C)c3nc12 28.2 µM [inhibitor, partial curve]
COCCn1c(=O)[nH]c2cc(C(=O)NCc3cccnc3)ccc2c1=O 39.8 µM [inhibitor, single point]
COc1ccc(Nc2ncc(C(=O)N3CCN(Cc4ccccc4)CC3)c3ccccc23)cc1 35.5 µM [inhibitor, partial curve, poor fit]
O=C(COc1ccc(Cl)cc1Cl)NC1CCSC1=O (configuration not stated) 35.5 µM [inhibitor, partial curve]
CCOC(=O)c1cc(-c2ccccc2)nc2c1c(C)nn2-c1ccccn1 20 µM [inhibitor, partial curve]
CCC(C)NC(=O)CSC1=Nc2ccccc2C2=NC(CC(=O)NCc3ccc(F)cc3)C(=O)N12 (configuration not stated) 22.4 µM [inhibitor, partial curve]
COc1ccc(NC(=O)Nc2cc3oc4ccccc4c3cc2OC)cc1 35.5 µM [inhibitor, partial curve]
COCC(=O)Nc1nc2n(n1)C(c1ccccc1)CC(c1ccc(OC)cc1)N2 (configuration not stated) 25.1 µM [inhibitor, single point]
CCN(CCO)c1nc(SC)nc2c1sc1nc(-c3ccco3)c3c(c12)CCC3 10 µM [inhibitor, partial curve]
NC(=O)N/N=C/c1cc(Br)ccc1OCC(=O)NCc1ccccc1 35.5 µM [inhibitor, partial curve]
CC1=C(C#N)C(c2cccnc2)C2=C(CC(c3ccc(Cl)cc3)CC2=O)N1 (configuration not stated) 31.6 µM [inhibitor, partial curve]
Cc1nc2c(-c3ccc(F)cc3)c(C)nn2c(N2CCOCC2)c1C 31.6 µM [inhibitor, single point]
Cc1c(Cl)cccc1NC(=S)/C(=C(\[O-])c1ccc(Cl)s1)[n+]1ccccc1 20 µM [inhibitor, partial curve]
C#CCCCCCCC#CCN(C)C 35.5 µM [inhibitor, single point]
CC(C)C1N=C2c3ccccc3N=C(SCc3cc(=O)n4cc(Cl)ccc4n3)N2C1=O (configuration not stated) 31.6 µM [inhibitor, single point]
CCCCc1cc(=O)oc2c(CN3CCCC3)c(O)c(Cl)cc12 12.6 µM [inhibitor, partial curve]
Cc1cc(S(=O)(=O)Nc2ccc(F)cc2)c(C)s1 22.4 µM [inhibitor, single point]
Cc1cc(Oc2ccc(Cl)cc2)nc(SCC(=O)c2ccccc2)n1 35.5 µM [inhibitor, single point]
CCOC(=O)c1sc(NC(=O)c2cc3n(n2)C(C(F)(F)F)CC(c2ccccc2)N3)c(C(=O)OCC)c1C (configuration not stated) 31.6 µM [inhibitor, partial curve]
O=C1NC(=O)c2cc(Nc3ccccc3)c(Nc3ccccc3)cc21 20 µM [inhibitor, single point]
O=C(Cn1c(/C=C/c2ccccc2)nc2ccccc21)Nc1ccc(F)cc1 10 µM [inhibitor, partial curve]
COc1cc2c(cc1OC)C1(Nc3c-2c(Cc2ccccc2)nn3-c2ccccc2)C(=O)Nc2ccccc21 (configuration not stated) 12.6 µM [inhibitor, partial curve]
